The structures appear in SMILES notation. In all, about 310,000 compounds went through this assay and about 14,000 (4.5%) showed an effect of 50% or more. Effects have a minus sign here. Some of the results follow.
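Also: peak tail current of the secondary pulse compared with the same well before compound.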

The target in this experiment is human ether-à-go-go-related gene (hERG) potassium channel (human, UniProt Q12809). Nature of the experiment: primary screen, population patch clamp on CHO cells stably expressing hERG.
Sequence of human ether-à-go-go-related gene (hERG) potassium channel (Q12809 whole entry, looked up): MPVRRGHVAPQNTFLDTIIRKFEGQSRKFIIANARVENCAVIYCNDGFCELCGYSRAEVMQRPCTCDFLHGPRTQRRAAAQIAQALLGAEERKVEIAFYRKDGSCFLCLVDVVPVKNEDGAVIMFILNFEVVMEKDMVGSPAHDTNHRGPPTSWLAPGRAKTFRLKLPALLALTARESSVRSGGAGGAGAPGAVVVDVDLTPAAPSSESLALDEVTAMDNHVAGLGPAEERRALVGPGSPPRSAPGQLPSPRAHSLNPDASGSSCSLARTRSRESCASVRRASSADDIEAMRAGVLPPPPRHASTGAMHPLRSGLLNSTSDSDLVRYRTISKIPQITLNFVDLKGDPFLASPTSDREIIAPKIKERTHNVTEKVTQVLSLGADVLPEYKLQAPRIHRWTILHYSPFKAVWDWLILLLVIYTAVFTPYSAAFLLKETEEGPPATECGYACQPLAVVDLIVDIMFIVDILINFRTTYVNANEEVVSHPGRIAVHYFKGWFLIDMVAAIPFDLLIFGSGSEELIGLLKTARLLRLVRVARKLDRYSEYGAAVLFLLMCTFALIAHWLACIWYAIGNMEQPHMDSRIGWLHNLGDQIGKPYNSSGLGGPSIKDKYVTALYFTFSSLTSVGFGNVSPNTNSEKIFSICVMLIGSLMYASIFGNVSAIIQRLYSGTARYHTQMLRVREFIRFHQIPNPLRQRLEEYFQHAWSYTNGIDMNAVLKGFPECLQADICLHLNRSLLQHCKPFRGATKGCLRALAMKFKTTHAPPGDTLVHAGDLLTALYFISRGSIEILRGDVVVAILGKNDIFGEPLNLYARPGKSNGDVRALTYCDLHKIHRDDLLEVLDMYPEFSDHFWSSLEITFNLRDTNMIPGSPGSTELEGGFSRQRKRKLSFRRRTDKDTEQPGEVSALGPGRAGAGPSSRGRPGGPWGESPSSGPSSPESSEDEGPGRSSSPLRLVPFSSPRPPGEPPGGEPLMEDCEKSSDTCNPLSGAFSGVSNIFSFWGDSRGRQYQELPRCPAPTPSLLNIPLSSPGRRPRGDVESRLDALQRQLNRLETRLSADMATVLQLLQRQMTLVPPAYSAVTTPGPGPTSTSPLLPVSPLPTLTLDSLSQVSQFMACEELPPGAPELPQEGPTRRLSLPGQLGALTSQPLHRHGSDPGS
In the case of `COc1cccc(C(C(=O)NC2CCCCC2)N(C(=O)CNC(=O)c2ccco2)c2cccnc2)c1` (stereo not shown), the “hERG current change (%, negative = inhibition) at 10uM” value was -2.85%. The same measure for `c1ccc2c3c([nH]c2c1)CNCC3`: -4.8%; for `Cc1cccc(C)c1NC(=O)CCCSc1nnc(-c2ccco2)n1-c1ccccc1`: -30.4%; for `CCOc1ccc(CN2CCN(C(=O)c3cccc(F)c3)CC2)cc1.O=C(O)C(=O)O`: -62%.

`O=C(N/N=C1\CCSC1)c1cc(Cl)ccc1O`: the “hERG current change (%, negative = inhibition) at 10uM” value was -1.56%. With `COc1ccccc1-n1nnnc1SCC(=O)N(CC(C)C)C1CCS(=O)(=O)C1` (stereo not shown), the “hERG current change (%, negative = inhibition) at 10uM” value is -18.1%.

On to `Cc1cc(NC(=O)CN2C(=O)NC(CC(C)C)C2=O)ccc1Br` (stereo not shown), for which the “hERG current change (%, negative = inhibition) at 10uM” value was found to be 1.99%. With `O=C(NCc1ccc2c(c1)OCO2)C1CCN(S(=O)(=O)c2ccc(Br)s2)CC1`, the “hERG current change (%, negative = inhibition) at 10uM” value is on record as -24%.

With `COc1ccc(CC(=O)Nc2ccc(S(=O)(=O)Nc3onc(C)c3C)cc2)cc1OC`, the “hERG current change (%, negative = inhibition) at 10uM” value came to 20.9%. The same measure for `Br.FC(F)Oc1ccc(-c2csc(NNC3=NCCCCC3)n2)cc1`: -47.5%. In the case of `Cc1ccc(SCC(=O)OCC(=O)NCCc2ccccc2)cc1`, the “hERG current change (%, negative = inhibition) at 10uM” value was 3.67%. The same measure for `Cn1nc(C(=O)Nc2ccc(Br)cc2)cc1C(=O)Nc1ccc(Br)cc1`: 1.5%; for `CC(C)[C@H](NC(=O)NCc1ccc(F)cc1)C(=O)O`: 4.2%. As for `CCOc1ccc(-c2csc3nc[nH]c(=O)c23)cc1`, the “hERG current change (%, negative = inhibition) at 10uM” value is given as 14.9%. Take `Cc1ccc(NC(=O)COc2ccccc2)c(NC(=O)c2ccccc2C)c1`: the “hERG current change (%, negative = inhibition) at 10uM” value came out at 5.51%. Take `CC1C(=O)N(Cc2ccccc2)c2ccccc2N1C(=O)c1ccccc1` (stereo not shown): the “hERG current change (%, negative = inhibition) at 10uM” value is reported as -10%.

For `CCCc1nnc(SCC(=O)Nc2ccccc2Cl)n1CC1CCCO1` (stereo not shown), the “hERG current change (%, negative = inhibition) at 10uM” value was determined as 1.13%. Take `Cc1nc(-c2ccc(F)cc2)c(CC(=O)N(C)CC(=O)Nc2ccc(Br)cc2C)s1`: the “hERG current change (%, negative = inhibition) at 10uM” value came out at 63.8%.

Consider `Cl.c1cc2c(cc1C1CCCCC1)c1c3n2CCCNC3CCC1` (stereo not shown), for which the “hERG current change (%, negative = inhibition) at 10uM” value is listed as -9.4%.

Turning to `O=c1oc2ccccc2c(O)c1/C=N/c1ccccn1`, the “hERG current change (%, negative = inhibition) at 10uM” value turned out to be 12.7%. With `Cn1c(SCc2cccc(Br)c2)nc2ccccc2c1=O` the figure was 19.9%; with `CCN(CC)c1ccc(NC(=O)COC(=O)c2ccc3ccccc3n2)cc1`, -11.6%. With `COc1ccc(CNC(=O)CSCc2c(F)cccc2Cl)cc1`, the “hERG current change (%, negative = inhibition) at 10uM” value was -12.1%. With `C=Cc1cccc(NC(=O)COc2ccccc2)c1` the figure was -3.28%.

With `C=CCOC(=O)C1=C[C@@H](c2ccc(Br)cc2)[C@H](CCCO)[C@@H](OCC)O1`, the “hERG current change (%, negative = inhibition) at 10uM” value was -22.6%.

The record behind these values is PMC4336329 (PLoS ONE, 2015).
